From PubChem BioAssay AID1508623 (National Center for Advancing Translational Sciences (NCATS), 2021)
Out of some 48,000 compounds screened, about 450 (0.94%) were called active. Another 19% or so got no clear call; they are omitted. Calls come from the whole dose curve; as a rule, active = well fitted inhibition curve with a large enough effect; inconclusive = small, poorly fitted or top-dose-only effect; inactive = no such curve, though single readings can be large or run the other way. The list shows a part of the results.

Experiment: Primary qHTS for Identification of Small Molecule Inhibitors of Huntingtin Promoter Activity; note: nearly all actives have a fitted effect of over 50% in size
Details: HEK293 HTT promoter firefly luciferase reporter (activity 0% = vehicle and -100% = no light), 24 h; series mostly up to 57.5 µM; activity change, negative = inhibition: at the top concentration
In short: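 HEK293 Fluc reporter, 2,500 cells/well, 24 h pre-culture; cpds up to 57.5 uM final, 24 h 37 degrees C; Dual-Glo, 10 min RT; normalized vehicle = 0%, zero RLU = -100%.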

Activity change, negative = inhibition, inactive:
COC(=O)c1ccc(NC(=O)CCNS(=O)(=O)c2cccc3nsnc23)cc1 -3.98%, CCC(CC)C(=O)Nc1nnc2n1CCS2 -0.277%, COC(=O)c1c(-c2ccc(Cl)cc2)noc1N1CCN(c2ccccc2F)CC1 -2.47%, CCCCNC(=O)c1ccc2c(c1)NC(=O)C(C(C)C)N2 (configuration not stated) -14.9%, COc1ccc2c(c1)c1c(c(=O)n(-c3ccc(F)c(Cl)c3)c(=O)n1Cc1ccccc1F)n2C -1.57%, COc1ccccc1NC(=O)C(=O)c1cc(C)n(-c2cc(C)cc(C)c2)c1C -5.43%, CCOc1cccc(-c2nc3ccccc3c(=O)o2)c1 13.1%, O=C1CC(c2ccccc2)Cc2[nH]c(=O)c(-c3nc(-c4ccc(Cl)c(Cl)c4)cs3)cc21 (configuration not stated) -20.2%, COC(=O)C1=C(C)NC(C)=C(C(=O)OC(C)(C)CN(C)CCC(c2ccccc2)c2ccccc2)C1c1cccc([N+](=O)[O-])c1 (configuration not stated) -24.4%, Cc1cc(C)c2oc(C(=O)NCCc3ccc(S(N)(=O)=O)cc3)cc(=O)c2c1 17.2%, CC(C)(C)c1ccc(C(=O)NC2=NC(c3cccc(F)c3)CC(=O)N2)cc1 (configuration not stated) -10.4%, COc1ccc(Cl)cc1NC(=O)C(=O)NCc1ccc(Cl)cc1 -14.2% [at 11.5 µM], C[C@]12CCC(=O)C=C1CC[C@@H]1[C@@H]2CC[C@@]2(C)[C@H]1CC[C@]2(O)C(=O)CO -3.37%, COCCNS(=O)(=O)c1cc(-c2nn3c(C)nnc3c3ccccc23)ccc1C 2.07%, Cc1ccc(NC(=O)N2CCN(C(=O)c3nsc4ccccc34)CC2)cc1C -1.73%, COc1cccc(NC(=O)CN2C=NS(=O)(=O)c3ccccc32)c1 -19.6%, COc1cccc(-c2nc3c(c(SCC(=O)Nc4cccc(C)c4C)n2)Cc2c(CO)cnc(C)c2O3)c1 -4.54%, Cc1cccc(CCn2c(=O)c3ccccc3n(Cc3ccccc3C)c2=O)c1 -3.06%, COc1ccc2c(c1)c1c(c(=O)n(Cc3ccccc3)c(=O)n1CC(=O)Nc1ccccc1F)n2C -11.1%, CCOc1ccccc1NC(=O)N1CC(C)Oc2ccc(Cl)cc21 (configuration not stated) -23.9%, Cc1ccc(OC(=O)CSc2nnc(-c3ccc4c(c3)OCO4)o2)c(C)c1 -22.9%, Cc1cccn2c(=O)cc(COc3ccc(NC(=O)COc4ccc(F)cc4)cc3)nc12 -5.68%, CNC(=O)C1CCCN(c2nnc(C)c3c(C)n(-c4ccccc4)nc23)C1 (configuration not stated) -5.97%, O=C(O)CCc1ccc(-c2ccc(Br)cc2)n1-c1ccccc1O -7.48%, CCOC(=O)C1CCN(c2cc3c(cc2NC(=O)c2ccccc2Cl)n(C)c(=O)n3C)CC1 -20.9%, CCCCN(CC)CCNC(=O)Cn1cnc2sc(C)c(S(=O)(=O)N3CCN(c4ccccc4OC)CC3)c2c1=O -19.5%, CCOc1ccc(N2CC(c3nc4ccccc4n3CCOc3ccc(OC)cc3)CC2=O)cc1 (configuration not stated) -25.3%, CCOc1ccc2nc(N3CCCC(C(=O)NCCc4ccc(OC)cc4OC)C3)sc2c1 (configuration not stated) -9.01%, Cc1cc2nc(-c3ccc(NC(=O)c4ccc(OCC(C)C)cc4)cc3)oc2cc1C 1.63%, CCOc1cccc2sc(N(Cc3cccnc3)C(C)=O)nc12 -29%, O=C(NCCc1ccccc1)c1ccc(CSc2nc3cccnc3n2Cc2ccccc2)cc1 -24.8%, CC(C)CN(c1ccccc1)S(=O)(=O)c1nnc(NC(=O)C2CCCCC2)s1 -5.02%, O=C(NCCO)C(=O)NCC(c1ccc2c(c1)OCO2)N1CCOCC1 (configuration not stated) 4.12%, COc1ccc(/C=C/c2nc(C#N)c(N3CCC(C(N)=O)CC3)o2)cc1OC 6.7%, O=C(CCS(=O)(=O)c1ccccc1)N(Cc1cccnc1)c1nc2c(F)cccc2s1 14.7%, COc1ccc(C(CC(=O)Nc2ccccn2)N2Cc3ccccc3C2=O)cc1OC (configuration not stated) -15.9%, CCc1ccccc1NC(=O)Cn1nnc(C(=O)NCc2ccco2)c1N -17.9%, CCOC(=O)c1nnc2c(-c3ccc(Cl)cc3)c(C)nn2c1N -7.89%, CC(=O)Nc1ccc(NC(=O)c2csnn2)cc1 31.4%, COCCN1C(=O)N(c2cccc(OC)c2)C(=O)C1CC(=O)Nc1ccccc1 (configuration not stated) -7.73%, O=C(NCc1ccc(Cl)cc1)C(=O)NCC(c1ccc2c(c1)OCO2)N1CCOCC1 (configuration not stated) -16.3%, COc1cc2ccccc2cc1C(=O)N1CCN(c2nc3c(F)cccc3s2)CC1 -8.21%, CCCCc1nn2c(=O)cc(COC(=O)c3cccc(NC(=O)c4cccs4)c3)nc2s1 -14.5%, O=C(c1ccccc1)N1CCC(c2nc3ccccc3o2)CC1 -15.6%, CN1C(=O)Cc2cc(S(=O)(=O)CCC(=O)Nc3ccc(Cl)cc3)ccc21 -12.9%, CC(=O)c1ccc(NC(=O)c2cc3c([nH]c2=O)CC(c2ccccc2)CC3=O)cc1 (configuration not stated) -19.1%, COc1ccc(OC)c(CNS(=O)(=O)c2cc(-c3onc(C)c3C)ccc2C)c1 -17%, Cc1cc(F)ccc1NC(=O)CCS(=O)(=O)c1cc2c3c(c1)CCN3C(=O)CC2 -4.78%, CCN(CC)C(=O)c1sc2c(c1C)c(=O)n(-c1ccc(C)c(C)c1)c(=O)n2CC(=O)Nc1ccc(OC)cc1OC 0%, CCS(=O)(=O)N1CC(=O)N(c2cc(C)cc(C)c2)C(C)(C(=O)NC2CCCCC2)C1 (configuration not stated) 14.9%, Cc1cc(C)n2c(Nc3ccc4c(c3)OCCO4)c(-c3ccccc3)nc2n1 -3.37%, COc1ccc(/C=C/C(=O)Nc2cc(-c3nc4ccccc4o3)ccc2OC)cc1 5.78%, CC(=O)c1ccc(NC(=O)CSc2nnc(-c3ccncc3)n2-c2ccccc2)cc1 -11.9%, Cc1ccc(S(=O)(=O)c2[nH]c(-c3ccccc3)nc2SC(C)C(=O)O)cc1 (configuration not stated) -4.11%, COc1cc2ncnc(Nc3cccc(Br)c3)c2cc1OC -20.8%, COc1ccc(-n2c(SC)nc3sc4c(c3c2=O)CCN(C(C)=O)C4)cc1 -5.78%, c1ccc(-c2ccc(C(c3ccccc3)n3ccnc3)cc2)cc1 (configuration not stated) -20.4%, Cc1ccn2c(=O)cc(COc3ccc(NC(=O)C(C)(C)C)cc3)nc2c1 -7.51%, COC(=O)c1ccccc1NC(=O)CSc1n[nH]c(C)n1 -8.92%, CC(C)Oc1ccc(CNC(=O)CN2C(=O)c3cccnc3Oc3ccc(Cl)cc32)cc1 -23.8%, CCS(=O)(=O)N1CCc2cc(C(=O)NC(C)c3ccccc3)ccc21 (configuration not stated) -15.3%, O=c1c2sc3ccccc3c2n(Cc2cccc(C(F)(F)F)c2)c(=O)n1-c1ccccc1 -23.2%
